± gives the uncertainty stated by the source.
What follows are sequences tested on HEK293T (assay: plasma membrane surface immunostaining intensity (anti-HA, deep receptor scanning) (arbitrary fluorescence units); higher = higher plasma membrane expression). Conditions: GPCR class: A.

Sequence | plasma membrane surface immunostaining intensity
MGNHTWEGCHVDSRVDHLFPPSLYIFVIGVGLPTNCLALWAAYRQVQQRNELGVYLMNLSIADLLYICTLPLWVDYFLHHDNWIHGPGSCKLFGFIFYTNIYISIAFLCCISVDRYLAVAHPLRFARLRRVKTAVAVSSVVWATELGANSAPLFHDELFRDRYNHTFCFEKFPMEGWVAWMNLYRVFVGFLFPWALMLLSYRGILRAVRGSVSTERQEKAKIKRLALSLIAIVLVCFAPYHVLLLSRSAIYLGRPWDCGFEERVFSAYHSSLAFTSLNCVADPILYCLVNEGARSDVAKALHNLLRFLASDKPQEMANASLTLETPLTSKRNSTAKAMTGSWAATPPSQGDQVQLKMLPPAQ [GPR4] | 2720 ± 260
MGNITADNSSMSCTIDHTIHQTLAPVVYVTVLVVGFPANCLSLYFGYLQIKARNELGVYLCNLTVADLFYICSLPFWLQYVLQHDNWSHGDLSCQVCGILLYENIYISVGFLCCISVDRYLAVAHPFRFHQFRTLKAAVGVSVVIWAKELLTSIYFLMHEEVIEDENQHRVCFEHYPIQAWQRAINYYRFLVGFLFPICLLLASYQGILRAVRRSHGTQKSRKDQIQRLVLSTVVIFLACFLPYHVLLLVRSVWEASCDFAKGVFNAYHFSLLLTSFNCVADPVLYCFVSETTHRDLARLRGACLAFLTCSRTGRAREAYPLGAPEASGKSGAQGEEPELLTKLHPAFQTPNSPGSGGFPTGRLA [GPR68] | 6390 ± 120
MGPGEALLAGLLVMVLAVALLSNALVLLCCAYSAELRTRASGVLLVNLSLGHLLLAALDMPFTLLGVMRGRTPSAPGACQVIGFLDTFLASNAALSVAALSADQWLAVGFPLRYAGRLRPRYAGLLLGCAWGQSLAFSGAALGCSWLGYSSAFASCSLRLPPEPERPRFAAFTATLHAVGFVLPLAVLCLTSLQVHRVARRHCQRMDTVTMKALALLADLHPSVRQRCLIQQKRRRHRATRKIGIAIATFLICFAPYVMTRLAELVPFVTVNAQWGILSKCLTYSKAVADPFTYSLLRRPFRQVLAGMVHRLLKRTPRPASTHDSSLDVAGMVHQLLKRTPRPASTHNGSVDTENDSCLQQTH [GPR78] | 1840 ± 360
MGPTLAVPTPYGCIGCKLPQPEYPPALIIFMFCAMVITIVVDLIGNSMVILAVTKNKKLRNSGNIFVVSLSVADMLVAIYPYPLMLHAMSIGGWDLSQLQCQMVGFITGLSVVGSIFNIVAIAINRYCYICHSLQYERIFSVRNTCIYLVITWIMTVLAVLPNMYIGTIEYDPRTYTCIFNYLNNPVFTVTIVCIHFVLPLLIVGFCYVRIWTKVLAARDPAGQNPDNQLAEVRNFLTMFVIFLLFAVCWCPINVLTVLVAVSPKEMAGKIPNWLYLAAYFIAYFNSCLNAVIYGLLNENFRREYWTIFHAMRHPIIFFSGLISDIREMQEARTLARARAHARDQAREQDRAHACPAVEETPMNVRNVPLPGDAAAGHPDRASGHPKPHSRSSSAYRKSASTHHKSVFSHSKAASGHLKPVSGHSKPASGHPKSATVYPKPASVHFKADSVHFKGDSVHFKPDSVHFKPASSNPKPITGHHVSAGSHSKSAFSAATSHPKPTTGHIKPATSHAEPTTADYPKPATTSHPKPTAADNPELSASHCPEIPAIAHPVSDDSDLPESASSPAAGPTKPAASQLESDTIADLPDPTVVTTSTNDYHDVVVIDVEDDPDEMAV [GPR50] | 6412 ± 50
MGPTSVPLVKAHRSSVSDYVNYDIIVRHYNYTGKLNISADKENSIKLTSVVFILICCFIILENIFVLLTIWKTKKFHRPMYYFIGNLALSDLLAGVAYTANLLLSGATTYKLTPAQWFLREGSMFVALSASVFSLLAIAIERYITMLKMKLHNGSNNFRLFLLISACWVISLILGGLPIMGWNCISALSSCSTVLPLYHKHYILFCTTVFTLLLLSIVILYCRIYSLVRTRSRRLTFRKNISKASRSSEKSLALLKTVIIVLSVFIACWAPLFILLLLDVGCKVKTCDILFRAEYFLVLAVLNSGTNPIIYTLTNKEMRRAFIRIMSCCKCPSGDSAGKFKRPIIAGMEFSRSKSDNSSHPQKDEGDNPETIMSSGNVNSSS [S1PR1] | 1970 ± 490
MGQCYYNETIGFFYNNSGKELSSHWRPKDVVVVALGLTVSVLVLLTNLLVIAAIASNRRFHQPIYYLLGNLAAADLFAGVAYLFLMFHTGPRTARLSLEGWFLRQGLLDTSLTASVATLLAIAVERHRSVMAVQLHSRLPRGRVVMLIVGVWVAALGLGLLPAHSWHCLCALDRCSRMAPLLSRSYLAVWALSSLLVFLLMVAVYTRIFFYVRRRVQRMAEHVSCHPRYRETTLSLVKTVVIILGAFVVCWTPGQVVLLLDGLGCESCNVLAVEKYFLLLAEANSLVNAAVYSCRDAEMRRTFRRLLCCACLRQSTRESVHYTSSAQGGASTRIMLPENGHPLMDSTL [LPAR2] | 786 ± 170
MGSLYSEYLNPNKVQEHYNYTKETLETQETTSRQVASAFIVILCCAIVVENLLVLIAVARNSKFHSAMYLFLGNLAASDLLAGVAFVANTLLSGSVTLRLTPVQWFAREGSAFITLSASVFSLLAIAIERHVAIAKVKLYGSDKSCRMLLLIGASWLISLVLGGLPILGWNCLGHLEACSTVLPLYAKHYVLCVVTIFSIILLAIVALYVRIYCVVRSSHADMAAPQTLALLKTVTIVLGVFIVCWLPAFSILLLDYACPVHSCPILYKAHYFFAVSTLNSLLNPVIYTWRSRDLRREVLRPLQCWRPGVGVQGRRRGGTPGHHLLPLRSSSSLERGMHMPTSPTFLEGNTVV [S1PR2] | 3710 ± 390
MGSPWNGSDGPEGAREPPWPALPPCDERRCSPFPLGALVPVTAVCLCLFVVGVSGNVVTVMLIGRYRDMRTTTNLYLGSMAVSDLLILLGLPFDLYRLWRSRPWVFGPLLCRLSLYVGEGCTYATLLHMTALSVERYLAICRPLRARVLVTRRRVRALIAVLWAVALLSAGPFLFLVGVEQDPGISVVPGLNGTARIASSPLASSPPLWLSRAPPPSPPSGPETAEAAALFSRECRPSPAQLGALRVMLWVTTAYFFLPFLCLSILYGLIGRELWSSRRPLRGPAASGRERGHRQTVRVLLVVVLAFIICWLPFHVGRIIYINTEDSRMMYFSQYFNIVALQLFYLSASINPILYNLISKKYRAAAFKLLLARKSRPRGFHRSRDTAGEVAGDTGGDTVGYTETSANVKTMG [MLNR] | 6355 ± 60

Same assay, conditions: GPCR class: C

Sequence | plasma membrane surface immunostaining intensity
MGSLLALLALLLLWGAVAEGPAKKVLTLEGDLVLGGLFPVHQKGGPAEDCGPVNEHRGIQRLEAMLFALDRINRDPHLLPGVRLGAHILDSCSKDTHALEQALDFVRASLSRGADGSRHICPDGSYATHGDAPTAITGVIGGSYSDVSIQVANLLRLFQIPQISYASTSAKLSDKSRYDYFARTVPPDFFQAKAMAEILRFFNWTYVSTVASEGDYGETGIEAFELEARARNICVATSEKVGRAMSRAAFEGVVRALLQKPSARVAVLFTRSEDARELLAASQRLNASFTWVASDGWGALESVVAGSEGAAEGAITIELASYPISDFASYFQSLDPWNNSRNPWFREFWEQRFRCSFRQRDCAAHSLRAVPFEQESKIMFVVNAVYAMAHALHNMHRALCPNTTRLCDAMRPVNGRRLYKDFVLNVKFDAPFRPADTHNEVRFDRFGDGIGRYNIFTYLRAGSGRYRYQKVGYWAEGLTLDTSLIPWASPSAGPLPASRCSEPCLQNEVKSVQPGEVCCWLCIPCQPYEYRLDEFTCADCGLGYWPNASLTGCFELPQEYIRWGDAWAVGPVTIACLGALATLFVLGVFVRHNATPVVKASGRELCYILLGGVFLCYCMTFIFIAKPSTAVCTLRRLGLGTAFSVCYSALLTKTNRIARIFGGAREGAQRPRFISPASQVAICLALISGQLLIVVAWLVVEAPGTGKETAPERREVVTLRCNHRDASMLGSLAYNVLLIALCTLYAFKTRKCPENFNEAKFIGFTMYTTCIIWLAFLPIFYVTSSDYRVQTTTMCVSVSLSGSVVLGCLFAPKLHIILFQPQKNVVSHRAPTSRFGSAAARASSSLGQGSGSQFVPTVCNGREVVDSTTSSL [GRM2] | 6450 ± 91

From the supplement of paper PMC12458215
